# Results taken from paper PMC4336329 (PLoS ONE, 2015).
# Among all 310,000 compounds or so, about 2,200 (0.71%) showed an effect of 50% or more. The effect is printed as a negative number. The list shows a part of the results.
# Molecular target: human ether-à-go-go-related gene (hERG) potassium channel (human, UniProt Q12809)
# Test: primary screen, population patch clamp on CHO cells stably expressing hERG
# Chain of human ether-à-go-go-related gene (hERG) potassium channel (Q12809 whole entry, looked up): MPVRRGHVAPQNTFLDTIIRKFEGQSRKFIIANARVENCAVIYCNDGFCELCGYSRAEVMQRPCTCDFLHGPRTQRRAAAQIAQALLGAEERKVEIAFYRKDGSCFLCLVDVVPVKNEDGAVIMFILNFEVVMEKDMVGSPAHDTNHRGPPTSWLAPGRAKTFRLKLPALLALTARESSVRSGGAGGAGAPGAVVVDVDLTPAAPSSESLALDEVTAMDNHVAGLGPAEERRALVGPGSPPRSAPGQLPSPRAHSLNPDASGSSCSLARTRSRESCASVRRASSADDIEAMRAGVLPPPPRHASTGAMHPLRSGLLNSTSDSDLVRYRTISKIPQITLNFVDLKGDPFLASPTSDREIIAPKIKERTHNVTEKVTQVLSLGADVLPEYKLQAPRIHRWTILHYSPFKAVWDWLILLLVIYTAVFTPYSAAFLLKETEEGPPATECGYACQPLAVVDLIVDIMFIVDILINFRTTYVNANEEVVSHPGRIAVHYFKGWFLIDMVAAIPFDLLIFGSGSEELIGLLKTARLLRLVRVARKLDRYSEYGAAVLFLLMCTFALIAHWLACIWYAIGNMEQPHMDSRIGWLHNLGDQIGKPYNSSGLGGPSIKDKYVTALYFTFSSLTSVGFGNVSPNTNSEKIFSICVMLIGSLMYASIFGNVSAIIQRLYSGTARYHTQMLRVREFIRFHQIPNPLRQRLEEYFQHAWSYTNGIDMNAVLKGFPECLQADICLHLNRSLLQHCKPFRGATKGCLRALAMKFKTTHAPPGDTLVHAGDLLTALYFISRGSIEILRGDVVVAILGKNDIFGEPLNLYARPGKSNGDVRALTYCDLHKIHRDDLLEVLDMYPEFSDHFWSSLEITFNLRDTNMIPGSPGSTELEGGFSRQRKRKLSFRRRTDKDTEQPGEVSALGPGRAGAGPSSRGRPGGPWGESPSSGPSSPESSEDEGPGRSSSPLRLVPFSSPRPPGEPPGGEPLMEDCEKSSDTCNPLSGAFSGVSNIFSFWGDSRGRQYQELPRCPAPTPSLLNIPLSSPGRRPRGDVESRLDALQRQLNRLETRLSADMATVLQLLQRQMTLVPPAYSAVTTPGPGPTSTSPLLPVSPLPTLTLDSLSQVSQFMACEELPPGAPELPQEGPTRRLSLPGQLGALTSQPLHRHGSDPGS
row,Compound,"hERG current change (%, negative = inhibition) at 1uM"
1,CCc1cc2c3c([nH]c2cc1S(=O)(=O)NCCCOC)CC(C)(C)CC3=O,11.9%
2,COc1ccccc1NC(=O)Nc1nc(C(C)(C)C)cs1,15%
3,O=C(/C=C/c1ccccc1[N+](=O)[O-])Nc1cccnc1,-1.85%
4,O=C(OCC(=O)N1CCN(S(=O)(=O)c2ccc(Cl)cc2)CC1)c1cc(Br)ccc1O,12.4%
5,Cc1coc2c(C)c3oc(=O)c(CCC(=O)N4C[C@H]5C[C@@H](C4)c4cccc(=O)n4C5)c(C)c3cc12,-10.7%
6,OCCSc1c(F)c(SCCO)c(SCCO)c(F)c1SCCO,6.7%
7,O=C(NCCCn1ncc2ccccc21)c1cc(COc2c(F)cccc2F)on1,6.17%
8,COc1cc2nc(C3CCC3)n(NC(=O)C(OC(C)=O)c3ccccc3)c(=O)c2cc1OC (stereo not drawn),17.3%
9,O=C(O)c1ccc(NS(=O)(=O)c2cc(Cl)ccc2Cl)cc1,-0.322%
10,COc1ccc(CCNC(=O)CN(C2CCCCC2)S(C)(=O)=O)cc1,4.21%
11,COc1cccc(-n2nnc3c(=O)n(Cc4ccc(F)cc4)cnc32)c1,2.19%
12,CCCCC(=O)N1C/C=C\C(c2ccc(OC)cc2)N(Cc2ccc(F)cc2)C(=O)C1 (stereo not drawn),5.48%
13,CCCc1c(C(=O)NNc2cccc(Cl)c2)cnn1-c1ccccc1,9.12%
14,O=C1S/C(=C\c2ccc(N3CCOCC3)o2)C(=O)N1Cc1ccc(F)cc1,0.642%
15,CCCCN(C)C(=O)CC(NS(=O)(=O)c1ccc(NC(C)=O)cc1)C(C)C (stereo not drawn),4.1%
16,CCC(=O)c1cc2c(C)cc(=O)oc2c(C)c1OC(=O)C(C)C,13.3%
17,O=C(N/N=C/c1ccc([N+](=O)[O-])o1)c1ccc2c(c1)OCO2,6.92%
18,CCCCNC(=O)CNC(=O)c1nn(-c2ccc(OC)c(Cl)c2)c(=O)c2ccccc12,10.1%
19,C=CCn1c(O)c(C(CC)=NCCc2c[nH]c3ccccc23)c(=O)[nH]c1=O,8.83%
20,Cc1ccc(C(=O)O)cc1NC(=O)c1ccc(Cn2nc(C)c(Cl)c2C)o1,17.4%
21,Cc1cc(N2CCOCC2)n2nc(C)c(-c3ccccc3Cl)c2n1,-7.57%
22,NC1=C([N+](=O)[O-])C(c2ccc3c(c2)OCO3)c2c(c3ccccc3oc2=O)O1 (stereo not drawn),-22.9%

row,Compound,"hERG current change (%, negative = inhibition) at 1uM"
1,CCOc1ccc(N(CC(=O)NC2CCCC2)C(=O)CSc2nnc(COc3ccccc3)o2)cc1,4.73%
2,O=C(CSc1ccc(Cl)cc1)N/N=C/c1ccc([N+](=O)[O-])o1,10.9%
3,CCOc1ccc(S(=O)(=O)NCCC(=O)OCC(=O)c2ccc[nH]2)cc1,16.2%
4,O=C(NCc1ccco1)c1cnccn1,6.38%
5,CC(NC(=O)Nc1ccc(F)cc1F)c1ccc2c(c1)OCO2 (stereo not drawn),5.7%
6,CC1CCN(c2nc(CN3CCCCC3)nc3scc(-c4ccccc4)c23)CC1,3.12%
7,O=C1CCC(C(=O)Nc2ccccc2)N1 (stereo not drawn),19.9%
8,O=C1OC(CO)CN1Cc1ccccc1 (stereo not drawn),8.04%
9,CCS(=O)(=O)N1CCN(S(=O)(=O)c2ccccc2)CC1.O=C(O)C(=O)O,0.258%
10,C[C@@H]1CCC(=O)N(C[C@@H](C)CC#N)CC1,20%
11,Cc1ccc(OCC(=O)NNC(=O)Cn2nnc(-c3ccccc3)n2)cc1,15.1%
12,Cc1[nH]n(-c2c(Cl)cc(Cl)cc2Cl)c(=O)c1C=Nc1ccc(S(=O)(=O)N2CCOCC2)cc1,2.49%
13,CCOc1ccc(C(=O)CCC(=O)Nc2ncccc2O)cc1,10.7%
14,O=C(Cc1ccc(Br)cc1)NCCN1CCOCC1,10.2%
15,CCc1ccc2c(c1)c1nc(C)sc1n2CC,-1.98%
16,CCN1CCN(C(=O)COc2ccc(S(=O)(=O)N3CCOCC3)cc2C)CC1,15.3%
17,COc1cc(C2NC(=O)N(C)C(C)=C2C(=O)OCc2ccccc2)cc(Br)c1O (stereo not drawn),12%
18,CCN(CC(=O)NCc1ccc(Cl)cc1)C(=O)CSCC(=O)Nc1ccc(OC)cc1,-28.8%
19,Cc1nn(Cc2ccccc2)c(C)c1C(=O)NCc1ccccc1,8.88%
20,CCN1CCN(C(=O)c2cn(CC)c3ccc(S(=O)(=O)N(C)C)cc3c2=O)CC1,10%
21,Cc1c(N/C(=N/S(=O)(=O)c2ccccc2)c2ccc(Cl)cc2)c(=O)n(-c2ccccc2)n1C,1.87%
22,C=CCN=C(NC#N)SCc1ccccc1Cl,10.6%

row,Compound,"hERG current change (%, negative = inhibition) at 1uM"
1,CC(Cc1ccccc1)NC(=O)c1ccc([N+](=O)[O-])cc1 (stereo not drawn),1.18%
2,Cc1onc(-c2ccccc2Cl)c1C(=O)N[C@@H]1C(=O)N2[C@@H]1SC(C)(C)[C@@H]2C(=O)[O-].[Na+],3.5%
3,COc1ccccc1/C=C1\SC(=S)N(CCC(=O)NC2=NCCS2)C1=O,8.45%
4,CCCCc1nc2ccccc2c(N)c1CCC.O=C(O)c1cc([N+](=O)[O-])ccc1Cl,-28.7%
5,CCCCC(=O)N(c1ccc(OC)cc1)C1C=CS(=O)(=O)C1 (stereo not drawn),9.23%
6,CCN1C(=O)/C(=C/c2c(C)nn(C)c2C)SC1=S,-0.212%
7,COCC(=O)N1CCN(c2ccc([N+](=O)[O-])cc2)CC1,-31.5%
8,Cc1ccc(CS(=O)(=O)Cc2ccc(C(=O)NC3CCCC3)o2)cc1,17.2%
9,Cn1cccc1/C=C1/C(=O)NC(=O)N(Cc2ccccc2)C1=O,12.3%
10,Cl.N=c1sccn1CC(=O)N1N=C(c2ccc(Cl)cc2)CC1c1ccco1 (stereo not drawn),-47.2%
11,COc1ccc(Cl)cc1NC(=O)c1nc2nc(C)cc(C(F)F)n2n1,8.56%
12,O=C(C1CCN(S(=O)(=O)Cc2ccccc2)CC1)N1CCCc2ccccc21,15.3%
13,Cc1cccc(N2CCN(S(=O)(=O)c3ccc(-c4cc(C)no4)s3)CC2C)c1 (stereo not drawn),18.6%
14,C=CCNC(=O)CCCCCNS(=O)(=O)c1ccc(OC)cc1,5.79%
15,O=C(NN1CCOCC1)c1ccccc1F,20.3%
16,Cc1c(C(=O)NC(=S)Nc2ccc(NC(=O)c3cccs3)cc2)oc2ccccc12,1.04%
17,Cc1ccccc1OC1C(=O)N(Cc2ccc3c(c2)OCO3)C1c1sccc1C (stereo not drawn),11.1%
18,COc1ccc(OC)c(/C=C2\N=C(c3ccccc3)OC2=O)c1,13.9%
19,C=CCN(CC=C)S(=O)(=O)c1ccc(C(=O)Nc2nnc(CSC)o2)cc1,-0.491%
20,Cc1c(C(=O)/C=C/N(C)C)nnn1-c1ccc(Cl)cc1Cl,16.7%
21,N#CCCn1cc(/C=N/O)c(-c2ccc(Cl)cc2)n1,-3.94%
22,Cc1cc(=O)oc2c3c(cc(OCC(=O)N4CCC(C(=O)O)CC4)c12)OC(C)(C)CC3,8.4%

row,Compound,"hERG current change (%, negative = inhibition) at 1uM"
1,COc1ccc(CC(=O)N2CCc3cc(OC)c(OC)cc3C2O)cc1OC (stereo not drawn),13.8%
2,Cc1ccc(-n2cc(C(=O)O)c(=O)cc2C)c(C)c1,12.7%
3,CCN1CCN(Cc2ccc(NC(=O)c3ccc(C)c(NC(=O)c4cc(-c5ccc(Br)cc5)n[nH]4)c3)cc2C(F)(F)F)CC1,9.82%
4,O=C(Cc1cccs1)NCc1ccc2c(c1)OCO2,5.02%
5,Cc1ccccc1NC(=S)NCCSc1ccc(Cl)cc1,6.07%
6,O=C(N/N=C/c1ccc2c(c1)OCO2)C(=O)Nc1ccccc1Cl,8.95%
7,COc1ccc(CCNC(=O)C2CCCN(c3ncccn3)C2)cc1 (stereo not drawn),1.11%
8,CCCC(c1nnnn1Cc1cccs1)N1CCN(C)CC1.Cl (stereo not drawn),18.8%
9,COC(=O)C1=C(c2ccc(Cl)c(C(F)(F)F)c2)C[C@@H]2CC[C@H]1N2C(=O)NCCOc1ccccc1,13.2%
10,N#Cc1nc(-c2ccc(OCc3ccccc3Cl)cc2)oc1NCCCn1ccnc1,-1.32%
11,CCOC(=O)/C(C#N)=C/Nc1cc(F)ccc1C,19.7%
12,COc1ccc(Br)cc1S(=O)(=O)Nc1ncccc1C,22.7%
13,Cc1ccc(C(=O)N/C(=C\c2cn(S(=O)(=O)N(C)C)c3ccccc23)C(=O)NCCCn2ccnc2)cc1,10.1%
14,O=C(c1ccc2c(c1)OCCCO2)c1cccs1,4.46%
15,c1ccc(CCc2ccccc2-c2nc(-c3ccccn3)no2)cc1,4.13%
16,Nc1nc(SCC(=O)N2CCCC2)[nH]c(=O)c1NC(=O)c1cccs1,7.18%
17,Cc1ccn2c(c1)nc(=S)n2C(=O)c1ccccc1,-1.09%
18,COc1ccccc1CCc1nnc(CCC(=O)NCC2CCCO2)o1 (stereo not drawn),11.6%
19,O=C(CSc1ncn(-c2ccccc2)n1)Nc1ccc2c(c1)OCO2,4.46%
20,COC(=O)C1=C(C)N(C)C(=O)NC1c1ccc([N+](=O)[O-])o1 (stereo not drawn),9.15%
21,O=C(Nc1ccc(N2CCOCC2)c(Cl)c1)c1cccnc1Cl,0.0718%
